# Measured values published in US10864269B2, “Therapeutic combinations comprising anti-CD73 antibodies and uses thereof” (MedImmune Limited, priority 2014, dated 2020).
# T1: muCD73 (Mus musculus, UniProt Q61503)
# T1 sequence (Q61503 29-551): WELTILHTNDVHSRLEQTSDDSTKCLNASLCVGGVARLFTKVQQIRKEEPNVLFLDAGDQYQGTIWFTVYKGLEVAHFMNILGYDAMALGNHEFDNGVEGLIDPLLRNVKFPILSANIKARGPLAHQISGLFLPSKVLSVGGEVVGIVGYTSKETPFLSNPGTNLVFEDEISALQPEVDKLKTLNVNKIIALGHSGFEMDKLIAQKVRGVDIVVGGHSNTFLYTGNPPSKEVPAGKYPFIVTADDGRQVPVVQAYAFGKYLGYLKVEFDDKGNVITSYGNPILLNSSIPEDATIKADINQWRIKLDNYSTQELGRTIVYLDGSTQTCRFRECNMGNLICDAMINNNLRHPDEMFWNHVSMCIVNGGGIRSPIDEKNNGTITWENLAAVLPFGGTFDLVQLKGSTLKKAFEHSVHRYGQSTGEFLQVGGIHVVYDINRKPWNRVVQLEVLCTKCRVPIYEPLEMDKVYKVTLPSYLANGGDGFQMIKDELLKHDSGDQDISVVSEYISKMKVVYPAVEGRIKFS
# T2: huCD73 (Homo sapiens, UniProt P21589)
# T2 sequence (P21589 27-549): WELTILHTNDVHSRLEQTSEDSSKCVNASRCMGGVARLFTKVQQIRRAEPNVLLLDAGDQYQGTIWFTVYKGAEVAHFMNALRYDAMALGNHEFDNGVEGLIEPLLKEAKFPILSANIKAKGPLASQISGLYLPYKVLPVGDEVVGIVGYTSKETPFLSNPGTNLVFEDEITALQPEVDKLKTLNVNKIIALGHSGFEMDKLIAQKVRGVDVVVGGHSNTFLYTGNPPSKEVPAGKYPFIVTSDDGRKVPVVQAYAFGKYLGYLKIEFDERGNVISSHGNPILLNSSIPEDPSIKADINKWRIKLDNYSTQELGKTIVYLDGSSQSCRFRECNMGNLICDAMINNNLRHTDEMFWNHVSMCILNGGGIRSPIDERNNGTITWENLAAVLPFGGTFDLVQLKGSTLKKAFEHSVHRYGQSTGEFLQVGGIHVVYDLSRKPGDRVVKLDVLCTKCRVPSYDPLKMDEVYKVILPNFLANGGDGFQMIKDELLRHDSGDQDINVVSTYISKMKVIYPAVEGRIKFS
# Columns and labels:
# muCD73 = molecular target: T1, muCD73; test: ELISA binding of Fab variants to murine CD73; conditions: combinatorial Fab library clones, capture ELISA and direct ELISA
# From the text: (§1) CD730010GL9 IgG1-TM was enhanced by screening Fab libraries comprising variant CDR sequences with single amino acid mutations. Each of the 61 positions in the six CDRs was individually randomized to 19 amino acids (all natural amino acids except Cysteine), generating a library with a theoretical diversity of 1159 unique clones (19 amino acids per position times 61 positions). Bacterial Fab fragments were produced from 4224 clones of the library and screened for binding to human and murine CD73 protein by capture ELISA (Assay 2). […] The Fab concentration in the bacterial supernatants was normalized and the binding of the normalized supernatants to human and murine CD73 protein was evaluated by direct ELISA (Assay 1). […]
# (§2) 384-well ELISA plates were coated with about 1.5 ng/well recombinant CD73 protein, blocked with 1% BSA/0.1% Tween20/PBS and incubating with antibody samples for 90 minutes at room temperature. […] HRP activity was detected with tetra methyl benzidine (TMB) substrate and the reaction was stopped with 1 M HCl. Plates were read at 450 nm.
# as §2, with “3” for “1.5”, “sheep-anti-human Fd antibody (for screening antibodies in Fab format),” for “recombinant CD73 protein,”, “with” for “with antibody”, “Plates were read at 450 nm.” left out
# huCD73 = molecular target: T2, huCD73; test: ELISA binding of Fab variants to human CD73; conditions: combinatorial Fab library clones, capture ELISA and direct ELISA
# From the text: as §1, §2
# as §2, with “3” for “1.5”, “sheep-anti-human Fd antibody (for screening antibodies in Fab format),” for “recombinant CD73 protein,”, “with” for “with antibody”, “Plates were read at 450 nm.” left out
molecule,measurement,setting,value
"C1: combinatorial library clone of CD730010 GL9; VL SEQ ID NO: 60, VH SEQ ID NO: 74 (antibody, V domains shown) VH: EVQLLESGGGLVQPGGSLRLSCAASGFTFSSYAYSWVRQAPGKGLEWVSAISGSGGSTYYADSVKGRFTISRDNSKNTLYLQMNSLRAEDTAVYYCARLGYSTIDKWGRGTLVTVSS VL: QSVLTQPPSASGTPGQRVTISCSGSLSNIGRNEVNWYQQLPGTAPKLLIYLNNQRPSGVPDRFSGSKSGTSASLAISGLQSEDEADYYCATWDDSLKGWLFGGGTKLTVL",binding to murine CD73,muCD73,strong binding
same,binding to human CD73,huCD73,strong binding
